# Results as given in PubChem BioAssay AID1645882 (National Center for Advancing Translational Sciences (NCATS), 2021).
# In all, about 16,000 compounds went through this assay and about 120 (0.75%) were called active. About 4% were inconclusive and are not listed. Calls follow the shape of the dose curve; as a rule, active = well fitted inhibition curve with a large enough effect; inconclusive = small, poorly fitted or top-dose-only effect; inactive = no such curve, though single readings can be large or run the other way. The list shows a part of the results.
# Target: Rap guanine nucleotide exchange factor 3 (Homo sapiens) (UniProt O95398)
# UniProt O95398, sequence (O95398 whole entry, looked up): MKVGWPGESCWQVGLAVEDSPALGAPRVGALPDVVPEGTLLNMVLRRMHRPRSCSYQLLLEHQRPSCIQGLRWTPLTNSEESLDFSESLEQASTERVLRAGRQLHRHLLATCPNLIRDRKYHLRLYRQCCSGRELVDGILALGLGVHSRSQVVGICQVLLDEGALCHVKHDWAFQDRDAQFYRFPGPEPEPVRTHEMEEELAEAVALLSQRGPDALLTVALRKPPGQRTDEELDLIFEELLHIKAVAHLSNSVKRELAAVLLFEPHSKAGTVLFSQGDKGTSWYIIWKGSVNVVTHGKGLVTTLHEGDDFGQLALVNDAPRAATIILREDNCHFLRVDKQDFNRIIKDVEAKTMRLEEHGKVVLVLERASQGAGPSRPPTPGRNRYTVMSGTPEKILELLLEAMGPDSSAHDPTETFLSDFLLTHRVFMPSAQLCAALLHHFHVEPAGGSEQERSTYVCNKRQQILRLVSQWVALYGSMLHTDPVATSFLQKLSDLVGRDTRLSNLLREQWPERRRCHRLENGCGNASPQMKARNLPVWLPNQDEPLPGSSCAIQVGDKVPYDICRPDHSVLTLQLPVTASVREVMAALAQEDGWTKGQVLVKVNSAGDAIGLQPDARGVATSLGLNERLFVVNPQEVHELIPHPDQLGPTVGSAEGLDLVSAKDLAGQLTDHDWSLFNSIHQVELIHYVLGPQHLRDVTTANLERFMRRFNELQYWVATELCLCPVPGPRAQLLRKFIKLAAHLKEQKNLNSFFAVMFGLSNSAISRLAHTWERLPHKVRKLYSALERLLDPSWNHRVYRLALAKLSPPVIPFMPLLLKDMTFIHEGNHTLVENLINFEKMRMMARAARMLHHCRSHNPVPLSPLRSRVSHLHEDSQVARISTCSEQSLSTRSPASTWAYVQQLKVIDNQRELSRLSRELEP
# Assay: Validation qHTS for antagonist of cAMP-regulated guanine nucleotide exchange factor 3 (EPAC1);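 also: plate controls were DMSO for no effect and ATA control for full effect; nearly all actives have a fitted effect of over 75% in size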
# Details: EPAC1 Rap1B-BODIPY-GDP exchange, fluorescence; series mostly up to 150 µM; activity change, negative = inhibition: at the top concentration
# Outline: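 Nucleotide exchange followed as fluorescence loss when BODIPY-GDP leaves Rap1B (480 nm excitation, 540 nm emission), read at 5 min intervals over 30 min. Reaction: 100 nM EPAC1, 250 nM RAP1B-BODIPY-GDP, 50 uM GDP; ATA and DMSO define normalization.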
row,SMILES,"activity change, negative = inhibition"
1,O=C(C[C@H]1C(=O)N(Cc2ccccc2)C[C@@H]1Cc1ccccc1)Nc1ccccc1,inactive: -4.34%
2,Clc1cc(Cl)c(OCC#CI)cc1Cl,inactive: 5.93%
3,O=C(O)/C=C(\CC(=O)O)C(=O)O,inactive
4,COc1cccc(Nc2ncc3nc(C)c(=O)n(CCC#N)c3n2)c1,inactive: -6.96%
5,Oc1cc(O)cc(/C=C/c2ccc(O)c(O)c2)c1,inactive
6,COc1ccc(-n2c(=O)cnc3cnc(Nc4ccccc4)nc32)cc1,inactive: 12.5%
7,Cc1c(CN2CCOc3ccc(C(C)(O)COc4ccccc4)cc3C2)cnn1C (centres undefined),inactive: 12.1%
8,CCCCN1CC[C@H]2C=CC[C@@H](C(=O)NC3CCCCC3)[C@H]2C1=O,inactive: -3.12%
9,CC1CCCC(C)N1NC(=O)c1ccc(Cl)c(S(N)(=O)=O)c1 (centres undefined),inactive
10,O=C(c1cccc(F)c1)N1CCC2(CCCN(Cc3ccncc3)C2)CC1,inactive: 19%
11,O=c1cnc2cnc(N3CCNCC3)nc2n1CCc1ccccc1,inactive: 18.9%
12,Cc1noc(C)c1C(=O)N1CCC2(CCCN(C(=O)NC(C)C)C2)CC1,inactive: 14.4%
13,COc1cccc(-n2c(SC)nnc2C2CCN(Cc3cccc(OC)c3O)CC2)c1,inactive: 15.9%
14,Cc1cccc(CNc2nc(-c3ccc(C(=O)N(C)C)cc3)nc3ccccc23)c1,inactive: 6.51%
15,Nc1nnc(-c2cccc(Cl)c2Cl)c(N)n1,inactive
16,CN1CCc2cc3c(cc2[C@@H]1[C@@H]1C(=O)Oc2c1ccc1c2OCO1)OCO3,inactive: -0.347%
17,Cc1nc2ccccc2nc1/C=C/c1ccc(N(C)C)cc1,inactive: -14.8%
18,O=c1c(-c2cc(F)cc(F)c2)nc2cnc(N3CCNCC3)nc2n1Cc1ccc(F)cc1,inactive: -25.2%
19,O=c1c(-c2cccc(Cl)c2)nc2cncnc2n1Cc1ccccc1Cl,inactive: -6.25%
20,CCc1noc(C)c1C(=O)N1CCOc2ccc(CN3CCN(c4ccccn4)CC3)cc2C1,inactive: 1.03%
21,O=C(Nc1cccc(N2CCC(NCc3cnn(-c4cccc(F)c4)c3)CC2)c1)c1ccncc1,inactive: 18.7%
22,C[N+]1(CC2COC(c3ccccc3)(C3CCCCC3)O2)CCCCC1 (centres undefined),inactive: 12.5%

row,SMILES,"activity change, negative = inhibition"
1,Cc1c(C(=O)N(C)CC2CCCN(C)C2)cnn1-c1nccc(-c2ccco2)n1 (centres undefined),inactive: 10.4%
2,CC[C@]12CCCN3CCc4c(n(c5ccccc45)[C@@](O)(C(=O)OC)C1)[C@@H]32,inactive: 11.2%
3,c1ccc2c(N3CCOCC3)nc(-c3ccoc3)nc2c1,inactive: 8.27%
4,COCC(=O)Nc1cc(C(=O)N2CCc3sccc3C2)c2c(c1)nc(-c1ccncc1)n2C,inactive: 17.4%
5,COC(=O)[C@@H]1CCCN1Cc1ccc2c(c1)CN(Cc1ccc3c(c1)CCCN3C)CCO2,inactive: -12.9%
6,CSc1ccc(/C=C2/C(C)=C(CC(=O)O)c3cc(F)ccc32)cc1,inactive: 4.23%
7,Cc1cccc(CNC(=O)c2cnn(-c3nccc(-c4cc(C)sc4C)n3)c2C)n1,inactive: 7.63%
8,COc1cccc(C(=O)N2CCCC(c3nc(SCCN4CCOCC4)ncc3C)C2)c1 (centres undefined),inactive: 5.54%
9,C=C[C@]1(C)C[C@@H](OC(=O)CSCCN(CC)CC)[C@]2(C)[C@H](C)CC[C@]3(CCC(=O)[C@H]32)[C@@H](C)[C@@H]1O,inactive: 4.61%
10,COc1ccc(C(=O)N2CCC3(CCCN(c4cccc(-c5ccccc5)c4)C3)CC2)cc1,inactive: 11.3%
11,CC(C)N(CCC(=O)c1ccc2ccccc2c1)Cc1ccccc1,inactive
12,CCOC(=O)c1ccc(C#Cc2ccc3c(c2)C(C)(C)CCS3)nc1,inactive: 17.7%
13,CC(c1ccon1)N(C)C(=O)c1cnn(-c2ncc3c(n2)-c2ccccc2CC3)c1C1CC1 (centres undefined),inactive: -13.8%
14,CCC(C)(C)c1ccc(CC(C)CN2C[C@@H](C)O[C@@H](C)C2)cc1 (some centres undefined),inactive: -5.7%
15,COc1cccc(CN2C(=O)NC(C)(C3CCN(Cc4cccc(O)c4)CC3)C2=O)c1OC (centres undefined),inactive: 16.3%
16,CC(C)Cc1cc(C(=O)NCC2Cc3cc(F)cc(-c4ccccn4)c3O2)no1 (centres undefined),inactive: 5.28%
17,Cc1cnc(CNC(=O)c2c3n(c(C)cc2=O)-c2ccccc2SC(c2ccsc2)C3)cn1 (centres undefined),inactive: 7.63%
18,CNC[C@@H]1CC[C@@H](N)[C@@H](O[C@H]2[C@H](O)[C@@H](O[C@H]3OC[C@](C)(O)[C@H](NC)[C@H]3O)[C@H](N)C[C@@H]2N)O1,inactive: 29.7%
19,CN1CCN(c2nc(-c3ccoc3)nc3ccccc23)CC1,inactive: 2.57%
20,COc1ccccc1C1CN(Cc2c(C)nc3sccn23)Cc2ccccc2O1 (centres undefined),inactive: 7.23%
21,CCOC(=O)c1cc(-c2ccccc2)nc2ccc(C)cc12,inactive: 6.7%
22,Cc1csc[n+]1CCC1CCCCC1,inactive: 7.35%

row,SMILES,"activity change, negative = inhibition"
1,O=c1[nH]c(=O)n([C@H]2C[C@H](O)[C@@H](CO)O2)cc1/C=C/Br,inactive: 6.24%
2,CN1CCN(c2ncc3nc(-c4cc(F)cc(F)c4)c(=O)n(C4CC4)c3n2)CC1,inactive: 5.87%
3,COc1cccc(C(=O)O[C@H]2[C@H](Cc3ccccc3)NS(=O)(=O)[C@H]3C[C@@H]4C=C[C@]23O4)c1,inactive: 12.4%
4,COc1cc(=O)n2c(c1C(=O)N(C)Cc1cscn1)CCN(Cc1ccc3c(c1)OCCO3)CC2,inactive: 7.61%
5,CNC(=O)[C@@H]1C[C@H](NC2CCCCCCC2)CN1Cc1cccc(OC)c1OC,inactive: 9.84%
6,Cc1cc(=O)c(C(=O)NCCCc2ccncc2)c2n1-c1ccccc1SC(c1cccs1)C2 (centres undefined),inactive: 1.95%
7,Cn1cccc1C(=O)N1CCC2(CCN(Cc3nccs3)CC2)CC1,inactive: 12.9%
8,C=CC(=O)c1ccc(CCCCCC)cc1,inactive: 41.7% [at 75.8 µM]
9,COCCn1c(=O)c(-c2cccs2)nc2cnc(Nc3ccccc3)nc21,inactive: 171%
10,Cc1nc2cnc(N(C)C)nc2n(CCC#N)c1=O,inactive: 0.853%
11,Cc1ccc(N)cc1O,inactive: 13.9% [at 320 µM]
12,COc1ccc(NC(=O)N2CC[C@@]3(CCCN(C(=O)c4cccn4C)C3)C2)cc1,inactive: 30.1%
13,Cc1cc(C)n(-c2ccc(C(=O)NCC3Cc4cc(-c5cnccn5)ccc4O3)cc2)n1 (centres undefined),inactive: -1.63%
14,COc1ccc2c(c1)OCC(Cc1ccc(OC)c(OC)c1)C2=O (centres undefined),inactive: -16.4%
15,N#CCCn1c(=O)c(-c2ccccc2)nc2cnc(Oc3ccccc3)nc21,inactive: 8.97%
16,Cc1oc(-c2ccccc2NC(=O)C2CCC2)nc1CNC(=O)c1ccc2ccccc2c1,inactive: -11.4%
17,O=c1cc(O)cc(/C=C/c2ccc(O)c(O)c2)o1,inactive: 11.1% [at 75.8 µM]
18,Cc1cc(C(=O)Nc2cccc(-c3nc(CNC(=O)c4cnccn4)c(C)o3)c2)c(C)o1,inactive: 12.6%
19,Clc1ccc(-c2nc3sccn3c2/C=N/OCc2ccc(Cl)c(Cl)c2)cc1,inactive
20,COc1ccc(C(=O)N2CCC3(CCCN(Cc4ccccc4)C3)CC2)cc1,inactive: 1.37%
